The results in this text go back to the supplement of paper PMC9135407.

Values joined by “and” are separate entries in the source; they are usually repeats but may differ in a detail not shown here. Equal entries are not always repeated. Structures can show the parent of a compound that is named as a salt. Screen size: about 5,800 compounds; about 620 (11%) showed activity.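 How the source made its calls: active = score above a cut-off or among the top three wells of a plate; in these data no inactive exceeds 0.85.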 The list shows a part of the results, in another mix than the full data. Bounds are passed on as bounds.

For the test, the system named is primary human hepatic stellate cells (donor 1). Description: scaled lipid accumulation score (0 = DMSO-like, 1 = nortriptyline-like); higher = stronger HSC inactivation (lipid re-accumulation), active = hit call of the paper. The settings on record: 48 h.
[1] abbreviates: library stock concentration: 3.33 mM.
[2] abbreviates: library stock concentration: 10 mM.
Where [3] appears, read: library stock concentration: 1 mM.

As to `CN(C)[C@@H](CCOc1cccc2ccccc12)c1ccccc1` [Dapoxetine HCl], the “scaled lipid accumulation score” value by setting is: under setting [1], inactive: 0.506; under setting [2], inactive: 0.625. Turning to `Nn1nnc2ccccc21` [1-Aminobenzotriazole], under setting [2], the “scaled lipid accumulation score” value was inactive: 0.068. For the compound `CN(C)CCCC1(c2ccc(F)cc2)OCc2cc(C#N)ccc21` (configuration not stated) [Citalopram hydrobromide], the “scaled lipid accumulation score” value under setting [2] is inactive: 0.259 and inactive: 0.597. In the case of `CN(C)CCCC1(c2ccc(F)cc2)OCc2cc(C#N)ccc21` (configuration not stated) [Citalopram Hydrobromide], the “scaled lipid accumulation score” value is inactive: ≤ 0.

As to `CN(C)CCCC1(c2ccc(F)cc2)OCc2cc(C#N)ccc21` (configuration not stated) [Citalopram], the “scaled lipid accumulation score” value was inactive: 0.446 and inactive: 0.566 (library stock concentration: 6.2 mM); inactive: 0.51 under setting [2]. With `O=C(O)CNC(=O)C(CS)Cc1ccccc1` (configuration not stated) [Thiorphan], the “scaled lipid accumulation score” value was inactive: ≤ 0. As to `Cc1onc(-c2ccccc2)c1C(=O)N[C@@H]1C(=O)N2[C@@H]1SC(C)(C)[C@@H]2C(=O)O` [Micropenin], the “scaled lipid accumulation score” value under setting [2] is inactive: 0.3.

For `Cc1onc(-c2ccccc2)c1C(=O)N[C@@H]1C(=O)N2[C@@H]1SC(C)(C)[C@@H]2C(=O)O` [Oxacillin sodium monohydrate], the “scaled lipid accumulation score” value (library stock concentration: 5 mM) is inactive: 0.014.

For `Cc1onc(-c2ccccc2)c1C(=O)N[C@@H]1C(=O)N2[C@@H]1SC(C)(C)[C@@H]2C(=O)O` [Oxacillin sodium], the “scaled lipid accumulation score” value is inactive: ≤ -0.001 (library stock concentration: 4.7 mM) and inactive: ≤ 0 under setting [2].

For the compound `CCCCC/C=C\C\C=C/C=C/C=C/CC(=O)CCCC(=O)O` [5-Ketoeicosatetraenoic acid], where the note is “library stock concentration: 100 uM”, the “scaled lipid accumulation score” value is inactive: ≤ -0.021.

On to `COc1cc(CC(=O)O)ccc1O` [4-Hydroxy-3-methoxyphenylacetic acid], for which, under setting [2], the “scaled lipid accumulation score” value was inactive: ≤ -0.07. Still for that read-out and setting: the same measure for `Cc1cc(CC(C)CC(C)(C)C)n(O)c(=O)c1` (configuration not stated): inactive: 0.435. As to `C=CC[N@@+]12CC[C@@]34c5ccccc5N5/C=C6/[C@H]7C[C@H]8[C@@]9(CC[N@@+]8(CC=C)C/C7=C/CO)c7ccccc7N(/C=C(/[C@@H](C[C@@H]31)/C(=C\CO)C2)[C@H]54)[C@@H]69` [Alcuronium chloride], the “scaled lipid accumulation score” value was inactive: ≤ 0. Regarding `CN1CCC[C@H]1c1cccnc1`, the “scaled lipid accumulation score” value under setting [2] is inactive: ≤ 0.

As for `CN1CCC[C@H]1c1cccnc1` [Nicotine ditartrate], under setting [2], the “scaled lipid accumulation score” value was inactive: 0.046. Regarding `O=S(=O)(O)CCSSCCS(=O)(=O)O`, the “scaled lipid accumulation score” value under setting [2] was inactive: ≤ 0. `O=S(=O)(O)CCSSCCS(=O)(=O)O` [Dimesna]: the “scaled lipid accumulation score” value under setting [1] is inactive: ≤ 0 and the “scaled lipid accumulation score” value under setting [2] was inactive: ≤ 0. In the case of `CO[C@H]1C(=O)[C@]2(C)[C@@H](OC)C[C@H]3OC[C@@]3(OC(C)=O)[C@H]2[C@H](OC(=O)c2ccccc2)[C@]2(O)C[C@H](OC(=O)[C@H](O)[C@@H](NC(=O)OC(C)(C)C)c3ccccc3)C(C)=C1C2(C)C` [Cabazitaxel], the “scaled lipid accumulation score” value reads like this: under setting [1], inactive: ≤ 0; under setting [2], inactive: ≤ 0. In the case of `CCCC(C(=O)OCCN(CC)CC)(c1ccccc1)c1ccccc1` [Proadifen hydrochloride], the “scaled lipid accumulation score” value was inactive: 0.228. Besides, for the setting “library stock concentration: 5.1 mM”, the “scaled lipid accumulation score” value is inactive: 0.536. For the same compound, the “scaled lipid accumulation score” value under setting [2] is inactive: 0.511. As to `CCCC(C(=O)OCCN(CC)CC)(c1ccccc1)c1ccccc1` [SKF-525A hydrochloride], the “scaled lipid accumulation score” value under setting [2] was inactive: 0.355. Take `CN1CCN(C2=Nc3cc(Cl)ccc3Nc3ccccc32)CC1`: the “scaled lipid accumulation score” value under setting [2] was active: 0.854. Turning to `C[C@H](CCC(=O)NCC(=O)O)[C@H]1CC[C@H]2[C@@H]3[C@H](O)C[C@@H]4C[C@H](O)CC[C@]4(C)[C@H]3C[C@H](O)[C@]12C` [Glycocholic acid], the “scaled lipid accumulation score” value is inactive: ≤ 0.

For the compound `Cc1cc(N2CCOCC2)cc2[nH]c(-c3c(NCC(O)c4cccc(Cl)c4)cc[nH]c3=O)nc12` (configuration not stated), the “scaled lipid accumulation score” value under setting [1] was inactive: ≤ 0 and the “scaled lipid accumulation score” value under setting [2] was inactive: 0.182. Regarding `Clc1ccc(COC(Cn2ccnc2)c2ccc(Cl)cc2Cl)cc1` (configuration not stated) [Econazole nitrate], the “scaled lipid accumulation score” value is inactive: 0.345. Also, the “scaled lipid accumulation score” value under setting [1] is inactive: ≤ 0. For the same compound, the “scaled lipid accumulation score” value (library stock concentration: 4.5 mM) was inactive: 0.208. Moreover, the “scaled lipid accumulation score” value under setting [2] is inactive: ≤ 0. For `Clc1ccc(COC(Cn2ccnc2)c2ccc(Cl)cc2Cl)cc1` (configuration not stated) [Econazole Nitrate], the “scaled lipid accumulation score” value under setting [2] is inactive: 0.346.

As for `CCCCCCCC/C=C\CCCCCCCCCCCC(=O)O` [13(Z)-Docosenoic Acid], the “scaled lipid accumulation score” value under setting [3] was inactive: 0.016. Take `NC(=O)NO` [Hydroxyurea]: the “scaled lipid accumulation score” value was inactive: ≤ 0 under setting [1]; inactive: ≤ 0 and inactive: ≤ -0.07 under setting [2]; inactive: ≤ -0.001 (library stock concentration: 26.3 mM). Turning to `CO/N=C1\CN(c2nc3c(cc2F)c(=O)c(C(=O)O)cn3C2CC2)CC1CN` (configuration not stated) [Gemifloxacin mesylate], the “scaled lipid accumulation score” value under setting [2] was inactive: ≤ -0.027.

`Cc1cc(C(=O)Nc2cc(Nc3ccc4c(/C=C/c5ccccn5)n[nH]c4c3)ccc2F)n(C)n1`: the “scaled lipid accumulation score” value under setting [2] was active: 1.61. In the case of `CN(C)CCOc1ccc(-c2nc(-c3ccncc3)c(-c3ccc4c(c3)CCC4=NO)[nH]2)cc1`, the “scaled lipid accumulation score” value under setting [1] is active: 1.06.

Take `O=C(O)c1ccc(N2C(=O)C(=Cc3ccc(-c4ccc([N+](=O)[O-])cc4)o3)C=C2c2ccccc2)cc1`: the “scaled lipid accumulation score” value by setting is: under setting [1], inactive: 0.129; under setting [2], inactive: 0.284. `CCN(CC)C(=O)CCC/C=C\C[C@@H]1[C@@H](/C=C/[C@@H](O)CCc2ccccc2)[C@H](O)C[C@@H]1O` [17-phenyl trinor Prostaglandin F2.alpha. diethyl amide]: the “scaled lipid accumulation score” value under setting [3] was inactive: ≤ 0. Consider `CC[C@]1(O)C[C@@H]2CN(CCc3c([nH]c4ccccc34)[C@@](C(=O)OC)(c3cc4c(cc3OC)N(C)[C@H]3[C@@](O)(C(=O)OC)[C@H](OC(C)=O)[C@]5(CC)C=CCN6CC[C@]43[C@@H]65)C2)C1` [Vinblastine], for which the “scaled lipid accumulation score” value under setting [1] is inactive: 0.782.
